# From PubChem BioAssay AID720709 (National Center for Advancing Translational Sciences (NCATS), 2013)
# Hit rate of the full screen: of about 360,000 compounds, about 520 (0.14%) were called active. Inconclusive results, whose numbers are uncertain, are shown with a selection of clear calls. Calls come from the whole dose curve; as a rule, active = well fitted inhibition curve with a large enough effect; inconclusive = small, poorly fitted or top-dose-only effect; inactive = no such curve, though single readings can be large or run the other way. Potencies of inconclusive entries are left out as doubtful fits.
# Target: Rap guanine nucleotide exchange factor 3 (Homo sapiens) (UniProt O95398)
# Chain of UniProt O95398 (O95398 whole entry, looked up): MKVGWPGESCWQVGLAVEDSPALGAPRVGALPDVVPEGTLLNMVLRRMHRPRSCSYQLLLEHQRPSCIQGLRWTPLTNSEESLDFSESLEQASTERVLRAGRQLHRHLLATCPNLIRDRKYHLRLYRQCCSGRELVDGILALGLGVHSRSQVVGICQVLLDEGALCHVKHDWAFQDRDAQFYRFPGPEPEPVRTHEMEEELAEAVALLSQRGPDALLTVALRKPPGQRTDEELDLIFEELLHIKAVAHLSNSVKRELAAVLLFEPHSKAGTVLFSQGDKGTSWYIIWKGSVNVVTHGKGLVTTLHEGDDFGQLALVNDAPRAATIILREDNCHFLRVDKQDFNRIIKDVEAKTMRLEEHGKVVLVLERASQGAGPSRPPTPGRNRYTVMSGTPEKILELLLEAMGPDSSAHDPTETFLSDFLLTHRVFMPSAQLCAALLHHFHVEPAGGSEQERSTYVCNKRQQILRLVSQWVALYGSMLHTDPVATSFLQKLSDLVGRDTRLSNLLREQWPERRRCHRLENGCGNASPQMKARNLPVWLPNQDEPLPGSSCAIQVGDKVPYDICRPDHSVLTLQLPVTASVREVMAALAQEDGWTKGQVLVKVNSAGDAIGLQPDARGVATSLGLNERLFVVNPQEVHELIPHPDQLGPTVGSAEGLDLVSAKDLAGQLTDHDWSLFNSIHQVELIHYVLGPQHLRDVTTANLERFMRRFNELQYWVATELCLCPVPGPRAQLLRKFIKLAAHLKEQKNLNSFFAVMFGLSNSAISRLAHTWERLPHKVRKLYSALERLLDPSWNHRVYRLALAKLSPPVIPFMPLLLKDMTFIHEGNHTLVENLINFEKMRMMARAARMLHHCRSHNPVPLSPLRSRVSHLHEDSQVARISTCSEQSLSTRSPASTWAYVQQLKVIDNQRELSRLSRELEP
# Test: qHTS for Antagonist of cAMP-regulated guanine nucleotide exchange factor 3 (EPAC1): primary screen; note: nearly all actives have a fitted effect of over 50% in size;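 for activity change, negative = inhibition: plate controls were vehicle for no effect and positive control for full effect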
# Settings: EPAC1 GEF assay, Rap1b-BODIPY-GDP exchange fluorescence; activity change, negative = inhibition: at 115 µM (top of the series)
# Potency is the fitted concentration of half-maximal effect; tags give direction and shape of the fitted curve.
Compound,Potency,"activity change, negative = inhibition"
CCCN1C(=S)c2ccccc2C1c1ccccc1 (stereo not drawn),"inconclusive [inhibitor, single point]",
COc1ccc(N(CC(=O)Nc2cc(C)ccc2C)S(=O)(=O)c2c(C)[nH]c(=O)[nH]c2=O)cc1,"inconclusive [inhibitor, full curve, poor fit]",
CC1OC(CC(=O)O)CC2=C1C(=O)c1c(O)cccc1C2=O (stereo not drawn),"inconclusive [inhibitor, full curve]",
O=[N+]([O-])c1ccc(N2CCCCC2)s1,"inconclusive [inhibitor, partial curve, poor fit]",
CC(=O)Oc1cc2cccc(OC(C)=O)c(=O)c2c(OC(C)=O)c1OC(C)=O,"inconclusive [inhibitor, full curve]",
Clc1ccc(Cn2c(/C=C/c3ccco3)nc3ccccc32)cc1,"inconclusive [inhibitor, single point]",
N#C/C(=C\c1ccc(O)c(O)c1)C(=O)Nc1cccc2ncccc12,"inconclusive [inhibitor, partial curve]",
CSc1ccccc1NC(=O)COc1ccc(Cl)cc1,"inconclusive [inhibitor, partial curve]",
COc1cc(/C=C2\SC(=S)N(NS(=O)(=O)c3ccc(C)cc3)C2=O)ccc1O,"inconclusive [inhibitor, partial curve, poor fit]",
Nc1nc(-c2ccc3c(c2)OCCO3)cs1,,inactive: 8.7%
O=C(/C=C/c1ccc(OC(F)F)cc1)Nc1cccc(S(=O)(=O)N2CCOCC2)c1,,inconclusive: -19.1% [inhibitor]
CCCNC(=O)N1C[C@H](O)COC[C@H]2O[C@@H](CC(=O)N[C@@H]3CCN(Cc4ccccc4)C3)CC[C@@H]21,"inconclusive [inhibitor, single point]",
COc1cc(NC(=O)CC(C)S(=O)(=O)c2ccc3c(c2)NC(=O)CO3)cc(OC)c1OC (stereo not drawn),"inconclusive [inhibitor, partial curve]",
CCc1ccc(CN2CCC(n3nccc3NC(=O)c3ccccc3C)CC2)cc1,"inconclusive [inhibitor, partial curve, poor fit]",
Cc1ccc(NC(=S)c2ccncc2)c(C)c1,,inactive: -21%
CCOc1ccc(NC(=O)c2ccccc2NC(=O)CNC2CCCC(C)C2C)cc1 (stereo not drawn),"inconclusive [inhibitor, full curve, poor fit]",
Cc1ccc(OCCNC(=O)c2cccc(S(=O)(=O)N3CCN(Cc4ccccc4)CC3)c2)cc1,"inconclusive [inhibitor, single point]",
C=CCN1C(=O)[C@H]2CCC=C[C@H]2[C@@H]1c1cccc(C)c1,,inactive: 3.16%
COc1ccc(CCNC(=O)c2cc3c(F)cccc3s2)cc1OC,"inconclusive [inhibitor, partial curve]",
CCOc1ccc(NC(=O)CC2SC(=O)N(c3ccccc3)C2=O)cc1 (stereo not drawn),"inconclusive [inhibitor, single point]",
CCCc1cc(=O)[nH]c2nnc(SCC(=O)NC3CCCC3)n12,,inactive: 4.85%
NS(=O)(=O)c1ccc(Nc2nc(-c3cccc([N+](=O)[O-])c3)cs2)cc1,"inconclusive [inhibitor, full curve]",

Compound,Potency,"activity change, negative = inhibition"
CC(=O)Nc1ccc(S(=O)(=O)NCc2nc(-c3ccccc3)no2)cc1,,inconclusive: -30.3% [inhibitor]
CCC(C(=O)OCC(=O)Nc1ccc(OC)cc1OC)c1ccccc1 (stereo not drawn),,inconclusive: -34.1% [inhibitor]
COc1cc(/C=C/C(=O)OCC(=O)N2CCc3ccccc3C2)ccc1O,,inactive: -15.9%
COc1ccc(NC(=O)c2cc(-c3cccs3)on2)cc1OC,,inactive: 9.5%
C#CCOCCOCCOCCNc1nc(N2CCN(C(=O)CCCCCCCCCCNC(=O)[C@H](CCCCN)n3cc(C)nn3)CC2)nc(N2CCN(C(=O)CCCCCCCCCCNC(=O)[C@H](CO)n3cc(CCCSC)nn3)CC2)n1,"inconclusive [inhibitor, partial curve]",
O=C1NC(=S)S/C1=C/c1ccc(OC(=O)c2ccco2)cc1,,inactive: -1.06%
COc1ccc(CCNC(=O)C(=O)NCC2OCCN2S(=O)(=O)c2cc(F)ccc2F)cc1OC (stereo not drawn),"inconclusive [inhibitor, single point]",
CN(C)CCNC(=O)c1ccc(Cl)c2cc3ccccc3nc12,"inconclusive [inhibitor, full curve, poor fit]",
CCOC(=O)c1sc(=S)n(CC)c1N,"inconclusive [inhibitor, partial curve]",
Cc1ccc(C(=O)/C=C/c2ccccc2[N+](=O)[O-])cc1,"inconclusive [inhibitor, partial curve]",
Cc1ccc2c(CN3CCN(S(=O)(=O)c4ccccc4C(F)(F)F)CC3)cc(=O)oc2c1C,"inconclusive [inhibitor, partial curve]",
C=CCNC(=S)Nc1ccc2nsnc2c1,"inconclusive [inhibitor, single point]",
Cc1noc(NS(=O)(=O)c2ccc(NC(=O)CSc3nnc4c(n3)[nH]c3ccccc34)cc2)c1C,"inconclusive [inhibitor, single point]",
O=C(NCCCCNC(=O)c1ccc(F)cc1)c1ccc(F)cc1,,inactive: -12.9%
Cc1c(NC2=NC3(CCCCC3)Cc3ccccc32)c(=O)n(C)n1-c1ccccc1,,inactive: -0.0304%
CCOC(=O)c1ccc(N2C(=O)C=CC2=O)cc1,,inactive: 9.97%
N#C/C(=C\c1cc([N+](=O)[O-])c(N2CCOCC2)cc1N1CCOCC1)c1nc2ccccc2[nH]1,"inconclusive [inhibitor, single point]",
N#Cc1nc(COc2cccc(Cl)c2)oc1N1CCCC1,,inactive: -13.9%
N/C(=N\OC(=O)Cc1ccccc1)c1ccccn1,,inactive: -0.0079%
S=c1nc(Cc2ccc(Cl)cc2)[nH]c2ccccc12,,inactive: 3.34%
CC(C)CNS(=O)(=O)c1ccc(CCC(=O)N2CCN(c3ccccc3)CC2)cc1,"inconclusive [inhibitor, full curve, poor fit]",
